From publication PMC4336329 (PLoS ONE, 2015) come the findings set out here.

Screen size: about 310,000 compounds; about 14,000 (4.5%) showed an effect of 50% or more. Effects have a minus sign here. The list shows a part of the results.
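Note: peak tail current of the secondary pulse compared with the same well before compound.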

In the assay the target is human ether-à-go-go-related gene (hERG) potassium channel (human, UniProt Q12809). As to the kind of experiment: primary screen, population patch clamp on CHO cells stably expressing hERG.
Chain of human ether-à-go-go-related gene (hERG) potassium channel (Q12809 whole entry, looked up): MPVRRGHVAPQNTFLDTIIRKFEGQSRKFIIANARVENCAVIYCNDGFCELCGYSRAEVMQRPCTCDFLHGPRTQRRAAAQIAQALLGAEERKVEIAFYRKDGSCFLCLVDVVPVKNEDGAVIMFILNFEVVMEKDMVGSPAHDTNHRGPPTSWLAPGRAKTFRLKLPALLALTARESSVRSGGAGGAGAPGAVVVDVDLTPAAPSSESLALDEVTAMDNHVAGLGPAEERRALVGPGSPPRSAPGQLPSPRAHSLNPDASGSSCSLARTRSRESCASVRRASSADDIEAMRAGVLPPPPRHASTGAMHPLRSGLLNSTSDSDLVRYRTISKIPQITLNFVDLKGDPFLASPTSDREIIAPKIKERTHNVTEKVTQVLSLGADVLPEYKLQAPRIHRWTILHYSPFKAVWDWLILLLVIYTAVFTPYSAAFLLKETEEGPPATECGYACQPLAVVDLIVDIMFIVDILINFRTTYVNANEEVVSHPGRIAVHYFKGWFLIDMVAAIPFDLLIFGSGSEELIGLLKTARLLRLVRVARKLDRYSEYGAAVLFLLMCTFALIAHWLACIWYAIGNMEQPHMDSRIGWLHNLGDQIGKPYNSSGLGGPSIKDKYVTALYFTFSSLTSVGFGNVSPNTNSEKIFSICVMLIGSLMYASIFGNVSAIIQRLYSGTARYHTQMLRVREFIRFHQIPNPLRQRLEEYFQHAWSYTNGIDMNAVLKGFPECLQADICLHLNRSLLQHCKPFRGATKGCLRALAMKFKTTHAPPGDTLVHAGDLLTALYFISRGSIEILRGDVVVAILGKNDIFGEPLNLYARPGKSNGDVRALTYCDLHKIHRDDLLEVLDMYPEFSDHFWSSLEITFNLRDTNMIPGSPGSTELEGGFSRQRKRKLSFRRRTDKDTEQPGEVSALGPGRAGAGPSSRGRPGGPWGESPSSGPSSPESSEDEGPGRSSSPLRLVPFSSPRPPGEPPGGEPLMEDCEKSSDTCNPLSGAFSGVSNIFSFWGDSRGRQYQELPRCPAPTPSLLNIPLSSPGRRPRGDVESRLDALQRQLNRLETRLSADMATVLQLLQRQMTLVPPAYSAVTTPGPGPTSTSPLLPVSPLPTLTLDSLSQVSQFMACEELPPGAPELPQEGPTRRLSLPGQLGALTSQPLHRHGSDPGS
In the case of `COC(=O)c1nc(NC(=O)c2ccc(Cl)cc2)n[nH]1`, the “hERG current change (%, negative = inhibition) at 10uM” value is reported as 19.7%.
Regarding `COc1cccc(C(=O)Nc2c3c(nn2-c2ccc(Cl)cc2)CS(=O)(=O)C3)c1OC`, the “hERG current change (%, negative = inhibition) at 10uM” value was -25.4%.
Consider `N#Cc1cccnc1N1CCN(C(=O)c2cccs2)CC1`, for which the “hERG current change (%, negative = inhibition) at 10uM” value is -1.7%.
Turning to `c1ccc2c(c1)[nH]c1ccccc12`, the “hERG current change (%, negative = inhibition) at 10uM” value is reported as -11.7%.
As for `CNC(=S)N(Cc1cccs1)Cc1cc2cc(OC)ccc2[nH]c1=O`, the “hERG current change (%, negative = inhibition) at 10uM” value was -5.11%.
The figure for `CCN(CC)S(=O)(=O)c1ccc(C)c(NS(=O)(=O)c2cc(/C=C/C(=O)O)cc(OC)c2OC)c1` is 6.92%.
For the compound `COc1cc(NC(=O)CSCc2ccc(Cl)cc2)c(C(=O)O)cc1OC`, the “hERG current change (%, negative = inhibition) at 10uM” value amounted to 13.6%.
Take `CC1CCCC(NC(=O)CNC(=S)N(Cc2ccccc2)Cc2cccs2)C1C` (stereo not shown): the “hERG current change (%, negative = inhibition) at 10uM” value is listed as -5.47%.
With `CC(=O)c1cccc(NC(=O)C2C3C=CC(C4CC34)C2C(=O)O)c1` (stereo not shown) the figure was -4.93%.
With `CCOC(=O)N1CCN(C(=O)CSc2nnc(-c3cccc(OC)c3)o2)CC1` the figure was -10.2%.
The figure for `Cc1cc(C(F)(F)F)n2ncc(-c3ccccc3)c2n1` is 15%.
Turning to `COC(=O)N/N=C/c1cc(N=Nc2ccccc2Cl)ccc1O`, the “hERG current change (%, negative = inhibition) at 10uM” value was 11.5%.
The figure for `CCOc1ccc(NC(=O)CSc2nc(=O)n(CCN3CCOCC3)c3c2CCCC3)cc1` is -28.1%; for `Cn1c(/C=C/c2ccc([N+](=O)[O-])o2)nc2ccccc2c1=O` it is -24.2%; for `O=C1CN(C(=O)CSc2nncs2)c2ccccc2N1` it is 14.2%.
Regarding `N#CC1=C(N)SC2(CCCCC2)SC1c1ccccc1` (stereo not shown), the “hERG current change (%, negative = inhibition) at 10uM” value stood at 13.3%.
In the case of `CNc1nc2ccccc2n(C)c1=O`, the “hERG current change (%, negative = inhibition) at 10uM” value came out at 3.11%.
On to `O=C(/C=C/c1ccccc1)N1CCN(Cc2nc3ccccc3c(=O)[nH]2)CC1`, for which the “hERG current change (%, negative = inhibition) at 10uM” value was -64.7%.
The figure for `COC(=O)C1C(O)=C(C=NC2CCCCC2)C(=O)CC1(C)C` (stereo not shown) is 4.69%; for `COc1ccc(OC)c(S(=O)(=O)N2CCCC(C)C2)c1` (stereo not shown) it is -20.9%; for `COc1ccc2c(c1)OC/C(=C/c1cccs1)C2=O` it is -0.592%.
As to `O=C(CCn1c(=O)c2ccccc2n(CC(=O)NC2CCCC2)c1=O)NCc1ccco1`, the “hERG current change (%, negative = inhibition) at 10uM” value was -1.49%.
As to `CCOC(=O)N1CCN(S(=O)(=O)N2CCCC(C(=O)NCCc3ccc(OC)c(OC)c3)C2)CC1` (stereo not shown), the “hERG current change (%, negative = inhibition) at 10uM” value turned out to be 4.82%.
Consider `CCn1nc(NC(=O)c2cccnc2)c2cc3ccccc3nc21`, for which the “hERG current change (%, negative = inhibition) at 10uM” value is -0.677%.
Turning to `Cc1ccc(-n2c(SCC(=O)c3c(N)n(C)c(=O)n(C)c3=O)nc3sc4c(c3c2=O)CCCC4)c(C)c1`, the “hERG current change (%, negative = inhibition) at 10uM” value came to 1.12%.
The figure for `C=CCn1c(=O)c2c(nc3n2CC(C)CN3CCc2ccccc2)n(C)c1=O` (stereo not shown) is -72%.
The figure for `Cc1cccc(Nc2nc(N)nc(CN3CCC(C(N)=O)CC3)n2)c1C` is 17.5%; for `Cc1ccc(NC(=S)NC(=O)c2cncc(Br)c2)c(C)c1` it is 17%; for `CSc1ccc(CCNC(=O)CCc2nnc3ccc(N4CCCCC4)nn23)cc1` it is -32.6%.
The figure for `[O-]C1=N/[N+](=C/c2ccc(Cl)cc2)CC1` is 1.97%.
As for `COC(=O)c1c(NC(=S)NN2CCOCC2)sc2c1CCCC2`, the “hERG current change (%, negative = inhibition) at 10uM” value was 8.03%.
With `Cc1nc(SCC(=O)Nc2ccc(F)cc2)c(C#N)c(C)c1CC(=O)c1ccc(Br)cc1` the figure was 5.99%.
The figure for `O=C(CNS(=O)(=O)c1ccccc1)OCC(=O)c1ccccc1Cl` is 3.78%.
Turning to `O=C(COc1ccc2oc3c(c2c1)CCCC3)Nc1ccccn1`, the “hERG current change (%, negative = inhibition) at 10uM” value worked out at 11.8%.
The figure for `Oc1ccc(CNc2ccc(F)cc2)c2cccnc12` is 12%.
With `O=C(CN1C(=O)C2C3C=CC(C3)C2C1=O)OCC(=O)c1ccccc1` (stereo not shown) the figure was 7.44%; with `O=C(CN1CCN(C(=O)c2ccc(-c3nc4ccccc4s3)o2)CC1)Nc1ccc(F)cc1`, -72.3%.
With `COC(=O)c1cccc(NC(=O)Cc2nc(-c3ccccc3)sc2-c2ccc(C)cc2)c1` the figure was 6.76%; with `CCOC(=O)CSc1nc(C)cc(=O)[nH]1`, 14.3%.
For `COc1ccc(NC(=O)Cn2c3ccccc3c3nc4n(c(=O)c32)CCS4)cc1OC`, the “hERG current change (%, negative = inhibition) at 10uM” value worked out at 14.8%.
For the compound `CC(C)(C)C(=O)NNC(=O)COc1ccc2ccccc2c1Br`, the “hERG current change (%, negative = inhibition) at 10uM” value was determined as 3.81%.
Regarding `COc1ccc(-c2cc3ccc(OCC(C)=O)cc3oc2=O)cc1`, the “hERG current change (%, negative = inhibition) at 10uM” value was 23.4%.
With `O=C(COC(=O)COc1ccccc1[N+](=O)[O-])NC1CCCC1`, the “hERG current change (%, negative = inhibition) at 10uM” value stood at 4.16%.
